According to the supplement of paper PMC4604168 (melanoma cell lines):
The other results are listed elsewhere or left out. Repeats are few or missing, and single values can be far off.

Tests used:
Experiment in all cases: cell count relative to DMSO control; melanoma cells; higher = more viable cells
Conditions in all cases: library dose: low library concentration; 72 h
WM115 = tested on: WM115
WM1716 = tested on: WM1716
WM1745 = tested on: WM1745
WM3526 = tested on: WM3526
WM3619 = tested on: WM3619
WM451Lu = tested on: WM451Lu
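Further: cell number obtained by counting DAPI-stained nuclei in high-throughput microscope images with image analysis software, screen run in 1,536-well plates.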

Compound: C[C@]12O[C@H](C[C@]1(O)CO)n1c3ccccc3c3c4c(c5c6ccccc6n2c5c31)CNC4=O [Lestaurtinib] + Clc1ccc(Nc2nnc(Cc3ccncc3)c3ccccc23)cc1 [vatalanib] (first compound 0.004 µM, partner dose 2 µM)
- cell count (WM115): 94.3%
- cell count (WM1716): 102%
- cell count (WM1745): 101%
- cell count (WM3526): 102%
- cell count (WM3619): 103%
- cell count (WM451Lu): 163%

Compound: Cn1cc(C2=C(c3cn(C4CCN(Cc5ccccn5)CC4)c4ccccc34)C(=O)NC2=O)c2ccccc21 [Enzastaurin] + NCC(=O)Nc1ccc(-n2nc(C(F)(F)F)cc2-c2ccc3c(ccc4ccccc43)c2)cc1 [OSU03012] (first compound 0.8 µM, partner dose 1 µM)
- cell count (WM115): 86%
- cell count (WM1716): 85.9%
- cell count (WM1745): 87.9%
- cell count (WM3526): 64.3%
- cell count (WM3619): 106%
- cell count (WM451Lu): 61.5%

Compound: N.N.[Cl][Pt][Cl] [cisplatin] + Nc1ncn([C@H]2C[C@H](O)[C@@H](CO)O2)c(=O)n1 [decitabine] (first compound 1.6 µM, partner dose 0.1 µM)
- cell count (WM115): 86%
- cell count (WM1716): 75.9%
- cell count (WM1745): 95.1%
- cell count (WM3526): 104%
- cell count (WM3619): 83.5%
- cell count (WM451Lu): 83.8%

Compound: Cn1cc(C2=C(c3cn(C4CCN(Cc5ccccn5)CC4)c4ccccc34)C(=O)NC2=O)c2ccccc21 [Enzastaurin] + CS(=O)(=O)c1ccc(C(=O)Nc2ccc(Cl)c(-c3ccccn3)c2)c(Cl)c1 [vismodegib] (first compound 0.8 µM, partner dose 1 µM)
- cell count (WM115): 103%
- cell count (WM1716): 102%
- cell count (WM1745): 103%
- cell count (WM3526): 109%
- cell count (WM3619): 117%
- cell count (WM451Lu): 101%

Compound: C[C@]12O[C@H](C[C@]1(O)CO)n1c3ccccc3c3c4c(c5c6ccccc6n2c5c31)CNC4=O [Lestaurtinib] + CO[C@H]1C[C@@H]2CC[C@@H](C)[C@@](O)(O2)C(=O)C(=O)N2CCCC[C@H]2C(=O)O[C@H]([C@H](C)C[C@@H]2CC[C@@H](OCCO)[C@H](OC)C2)CC(=O)[C@H](C)/C=C(\C)[C@@H](O)[C@@H](OC)C(=O)[C@H](C)C[C@H](C)/C=C/C=C/C=C/1C [everolimus] (first compound 0.004 µM, partner dose 0.02 µM)
- cell count (WM115): 88.2%
- cell count (WM1716): 83.7%
- cell count (WM1745): 89.7%
- cell count (WM3526): 51.5%
- cell count (WM3619): 92.3%
- cell count (WM451Lu): 90.3%
